# Data from PubChem BioAssay AID1745845 (National Center for Advancing Translational Sciences (NCATS), 2022).
# Screen size: about 360,000 compounds; about 2,600 (0.72%) were called active. The inconclusive results got no clear call from the source; some entries with a clear call stand among them for comparison. Calls come from the whole dose curve; as a rule, active = well fitted inhibition curve with a large enough effect; inconclusive = small, poorly fitted or top-dose-only effect; inactive = no such curve, though single readings can be large or run the other way. Potencies of inconclusive entries are doubtful fits and often do not repeat.
# Assay: Primary qHTS for Inhibitors of ATXN expression; note: nearly all actives have a fitted effect of over 55% in size
# Conditions: HEK-293 ATXN2-luciferase reporter, luminescence, 24 h; activity change, negative = inhibition: at 57 µM (top of the series)
# Summary of the method: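 qHTS (up to 57 uM final) was run with 24 h compound exposure of reporter cells at 37 °C. Each well was multiplexed: SteadyGlo luminescence measured ATXN2-luciferase expression after a fluorogenic Gly-Phe-AFC viability readout (25 uM final).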
# % is set by controls: 0 for no effect and ±100 for the full control effect; potency is the fitted concentration of half-maximal effect; tags give direction and shape of the fitted curve.
Structure (SMILES),"activity change, negative = inhibition",Potency
O=S(=O)(Nc1cccc(-n2cnnn2)c1)c1cc(Br)ccc1Br,inactive: -16.2%,
O=C(CN1C(=O)C2CCCCC2C1=O)Nc1nc(-c2ccccn2)cs1 (configuration not stated),,"inconclusive: 31.6 µM [inhibitor, partial curve, poor fit]"
CC1(C)Cc2ccccc2-c2nnc(SCC(=O)N3CCN(c4ccccc4)CC3)n21,,"inconclusive: 22.4 µM [inhibitor, partial curve, poor fit]"
CC1(COc2ccc3c(c2)ncn3-c2ccc3cccc(N4CCC(N)CC4)c3n2)COC1,,active: 12.2 µM
O=C(c1ccccc1)c1ccccc1N1C(=O)C=CC1=O,,"inconclusive: 37.7 µM [inhibitor, single point]"
CC(C)c1ccc(CNCc2ccccc2)cc1,inactive: 8.89%,
Cn1c(=O)c2c(nc(NCc3ccco3)n2CC(O)CO)n(C)c1=O (configuration not stated),,"inconclusive: 6.7 µM [inhibitor, partial curve, poor fit]"
COC1=C(C)C(=O)C2=C(C1=O)C1C3CC4=C(C(=O)C(OC)=C(C)C4=O)C(CNC(=O)C(C)=O)N3C(C#N)C(C2)N1C (configuration not stated),,"inconclusive: 0.0474 µM [inhibitor, partial curve, poor fit]"
CN(CCO)c1cc(NCCCN2CCC(Cc3ccccc3)CC2)c2nonc2c1[N+](=O)[O-],,"inconclusive: 18.9 µM [inhibitor, partial curve, poor fit]"
CCN(CC)c1ccc(/C=C/c2cccc[n+]2C)c(OC)c1,,active: 3.16 µM
Cc1ccc2c(c1)C(c1ccc(F)cc1)N(C(=O)c1cccc(C(F)(F)F)c1)CC(=O)N2 (configuration not stated),,"inconclusive: 35.5 µM [inhibitor, single point]"
COc1cc(C(=O)n2cnc3ccccc32)c([N+](=O)[O-])cc1OC,,"inconclusive: 1.68 µM [inhibitor, full curve, poor fit]"
O=C1CC(N(CCc2ccccc2)C(=S)Nc2ccccc2)C(=O)N1c1ccc(F)cc1 (configuration not stated),inactive: -15.1%,
C/C(=N\NC(N)=S)C1C2C3CC4C5CC(C42)C1C53 (configuration not stated),,"inconclusive: 35.5 µM [inhibitor, single point]"
O=C(NCc1ccc(Cl)cc1)NCc1ccc(Cl)cc1,,"inconclusive: 0.474 µM [inhibitor, partial curve, poor fit]"
CC[C@]12c3[nH]c4cc(-c5ccco5)ccc4c3CCN1C(=O)[C@@H](CC(=O)NCc1cccc(C(F)(F)F)c1)C[C@@H]2C(=O)N1CCN(C(=O)C2CC2)CC1,,"inconclusive: 25.1 µM [inhibitor, single point]"
CSc1nnc(-c2ccc(S(=O)(=O)N3CCCCC3)cc2)o1,inactive: -5.02%,
